The full ranking holds about 110,000 compounds; the median of “z-score” is about -0.1, and the highest 2% start at about 2. The list shows a part of the results. The source made the active and inactive calls.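 How the source made its calls: active means z-score in the third read window above 3 or below -3; inactive means the rest.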

For the test, the target named is Metabotropic glutamate receptor 8 (Rattus norvegicus) (UniProt P70579). The test is described as follows: rat mGluR8 modulators via GIRK flux, primary screen, cell-based, thallium flux, HTS (AID 488969). Particulars: HEK293 rat mGluR8, GIRK (G protein-gated inwardly rectifying potassium channel) thallium flux, FluoZin2; at 10 µM; stronger effect = higher value; submaximal glutamate (EC20) added with thallium.
Chain of UniProt P70579 (P70579 whole entry, looked up): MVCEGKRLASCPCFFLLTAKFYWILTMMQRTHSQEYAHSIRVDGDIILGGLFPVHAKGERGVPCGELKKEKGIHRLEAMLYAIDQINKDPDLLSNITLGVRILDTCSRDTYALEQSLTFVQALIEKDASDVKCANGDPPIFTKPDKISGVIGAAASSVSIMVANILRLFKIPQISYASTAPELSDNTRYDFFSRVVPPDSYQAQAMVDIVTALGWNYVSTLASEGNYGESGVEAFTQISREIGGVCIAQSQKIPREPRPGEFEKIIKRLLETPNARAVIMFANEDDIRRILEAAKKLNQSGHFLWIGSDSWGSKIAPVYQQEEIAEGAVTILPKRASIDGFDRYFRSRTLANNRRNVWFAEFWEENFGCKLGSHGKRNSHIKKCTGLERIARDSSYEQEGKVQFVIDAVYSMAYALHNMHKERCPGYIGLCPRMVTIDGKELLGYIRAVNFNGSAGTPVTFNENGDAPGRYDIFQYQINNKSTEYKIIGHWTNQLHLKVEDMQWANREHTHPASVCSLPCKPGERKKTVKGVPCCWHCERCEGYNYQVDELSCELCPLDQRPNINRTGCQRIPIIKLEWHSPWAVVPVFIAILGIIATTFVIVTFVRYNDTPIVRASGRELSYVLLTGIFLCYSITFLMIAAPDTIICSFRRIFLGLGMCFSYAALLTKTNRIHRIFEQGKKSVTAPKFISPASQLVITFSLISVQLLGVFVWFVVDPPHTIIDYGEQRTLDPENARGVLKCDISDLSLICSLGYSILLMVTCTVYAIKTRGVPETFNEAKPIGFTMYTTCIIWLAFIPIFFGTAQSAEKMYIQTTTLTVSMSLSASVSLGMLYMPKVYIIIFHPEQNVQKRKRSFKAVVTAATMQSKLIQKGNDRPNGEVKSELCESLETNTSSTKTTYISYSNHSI
The compound `CN=C(Nc1cc(C)nn1-c1ccccc1)c1ccccc1F` showed a z-score of 1.38.
The value for `COc1cc(NC(=O)C2=C(N3CCOCC3)/C(=C/c3ccc(Cl)cc3)CC2)cc(OC)c1OC` was -0.0934; that for `Cc1ccc(C)c(NC(=O)c2sc(Cl)nc2-c2ccccc2)c1` was -0.303.
`CCOC(=O)c1cc(CC)sc1/N=C/C1C(=O)CC(C)(C)CC1=O`: the z-score is -0.586.
As to `CCN(CC(=O)N1CCCCCC1)S(=O)(=O)c1ccc(Cl)cc1`, the z-score was -0.404.
The value for `CCCOP(=O)(c1ccc(N(C)C)cc1)C(O)c1ccccc1OC` (centres undefined) was -0.208.
For the compound `N#Cc1cccc(NC(=O)Cn2c3[n+](c4ccc(C(F)(F)F)cc42)CCCCC3)c1`, the z-score was determined as 0.176.
The compound `CN(C)c1ccc(C=Nc2ccc(N(C)C)cc2)cc1` yielded a z-score of 0.0134.
Consider `CN1/C(=C\C=C2\N=C(c3ccc(F)cc3)OC2=O)C(C)(C)c2ccccc21`, for which the z-score was -0.211.
For `CC1(C)CC(=O)c2cc(C(=O)NC3CCSC3=O)c(=O)n(-c3ccccc3)c2C1` (centres undefined) the value was 0.789; for `Cc1cc(C)cc(OCC(=O)Nc2ccc(N3CCN(C(=O)c4ccco4)CC3)cc2)c1`, -0.15.
The value for `CNC(=O)c1nnn(Cc2ccccc2)c1NC(=O)C(F)(F)F` was -0.68.
For `COc1cc(NC(=O)COC(=O)/C=C/c2c(C)nn(C3CCS(=O)(=O)C3)c2Cl)cc(OC)c1OC` (centres undefined) the value was -0.105.
Consider `CCOc1ccc(NS(=O)(=O)c2ccc(NC(=S)NC(=O)CC(C)C)cc2)cc1`, for which the z-score turned out to be 0.468.
Turning to `C=CCN(c1ccc(C(=O)N2CCCC2)cc1)S(C)(=O)=O`, the z-score was determined as 0.0827.
For `N#C/C(C(=O)NCCc1ccccc1)=C1/N=C(NC(=O)c2cccs2)c2ccccc21` the value was -0.118; for `O=C(NOC(=O)c1cc(Br)ccc1Cl)c1cccs1`, 0.635; for `CC(C)(C)c1ccc(C(=O)c2c[nH]c(C(=O)NCCCN3CCOCC3)c2)cc1`, 0.183.
For `O=c1c2ccccc2nc(SCc2nnc(-c3ccccc3)o2)n1-c1ccc(F)cc1F` the value was -0.56; for `CC(C)(C)c1ccc(S(=O)(=O)NCc2ccc(C(=O)NCc3ccccn3)cc2)cc1`, -0.161; for `CCOC(=O)CNc1c(-c2ccc(OC)cc2)nc2ccc(Cl)cn12`, -0.861.
For `O=C(CCCSc1nc2ccccc2[nH]1)NCc1ccco1` the value was -1.07.
For the compound `Cc1ccc(C2CC2C(=O)NNC(=S)Nc2cccc(C)c2)cc1` (centres undefined), the z-score is active: 3.29.
The value for `Cc1noc(N)c1C(=O)Nc1ccc(C(C)(C)C)cc1` was -0.0712.
The value for `O=C(Oc1c(Cl)cc(Cl)c2cccnc12)c1ccco1` was active: 3.13; that for `O=C(Nc1nc2ccccc2s1)c1ccc(N2CCCCC2)c([N+](=O)[O-])c1` was -0.00648.
For `Cc1noc(COc2ccccc2OCc2onc(C)c2Cl)c1Cl` the value was -0.126.
The compound `CC(C)Cn1c(/C=C/c2ccco2)nc2ccccc21` returned a z-score of -0.264.
On to `Cc1ccn2c(CN3CCOCC3)c(-c3ccccc3)nc2c1`, for which the z-score was -0.0116.

(Values after PubChem BioAssay AID488969 (Vanderbilt High Throughput Screening Facility, 2010).)
